Publication PMC6919601, “Identification of Plasmodium dipeptidyl aminopeptidase allosteric inhibitors by high throughput screening” (PLoS ONE, 2019)
The campaign covered roughly 110,000 compounds. About 230 (0.21%) showed an effect of 50% or more. This is one part of the list.

target: DPAP1 (Plasmodium falciparum, UniProt Q8IIJ9); assay: primary screen, percent inhibition; read by cleavage of a fluorogenic dipeptide substrate; higher = more effect of the substance; design: species or system P. falciparum D10 trophozoite lysates; single well
Sequence (Q8IIJ9 whole entry, looked up): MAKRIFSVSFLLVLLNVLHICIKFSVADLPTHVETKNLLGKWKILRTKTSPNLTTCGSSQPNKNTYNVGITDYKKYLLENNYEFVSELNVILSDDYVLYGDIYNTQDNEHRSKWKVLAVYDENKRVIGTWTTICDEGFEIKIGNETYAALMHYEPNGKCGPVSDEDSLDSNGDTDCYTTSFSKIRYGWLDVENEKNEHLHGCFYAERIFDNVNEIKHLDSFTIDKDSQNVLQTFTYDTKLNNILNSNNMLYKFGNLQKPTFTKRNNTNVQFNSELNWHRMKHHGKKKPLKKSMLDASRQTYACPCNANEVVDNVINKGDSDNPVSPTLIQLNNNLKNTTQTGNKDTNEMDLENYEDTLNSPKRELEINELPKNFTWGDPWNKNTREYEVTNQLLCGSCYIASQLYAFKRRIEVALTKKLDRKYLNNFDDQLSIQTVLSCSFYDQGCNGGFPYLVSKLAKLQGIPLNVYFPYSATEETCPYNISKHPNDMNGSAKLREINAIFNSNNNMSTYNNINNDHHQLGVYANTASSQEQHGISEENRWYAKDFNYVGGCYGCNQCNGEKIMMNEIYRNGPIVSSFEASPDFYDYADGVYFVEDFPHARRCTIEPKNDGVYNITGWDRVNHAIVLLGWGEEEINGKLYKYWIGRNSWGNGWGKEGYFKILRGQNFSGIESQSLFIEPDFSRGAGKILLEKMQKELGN
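Further: 30 min substrate incubation versus DMSO and 10 µM JCP410 controls.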

| SMILES | % Inhibition @ 10 uM [%] |
| --- | --- |
| Nc1ccc2oc(-c3cccc4c(Br)cccc34)nc2c1 | 2.92 |
| Cc1cc(N)nn1Cc1ccc(F)cc1 | -6.65 |
| CCCN1CCN(C(=O)CSc2cc(C)nc3c(-c4ccccc4OC)c(C)nn23)CC1 | 0.0198 |
| Cc1cc(C)n(CCc2nc3c4ccccc4nc(SCC(=O)NC4CCCCC4)n3n2)n1 | 1.91 |
| O=C(NC1(C(F)(F)F)C(=O)Nc2c1c(=O)[nH]c(=O)n2Cc1ccco1)c1ccccc1F (centres unmarked) | -2.98 |
| COc1ccc(C(=O)Nc2ccc(C)c(Cl)c2)cc1 | -3.44 |
| O=C(Nc1ccccc1Cl)NS(=O)(=O)c1ccccc1Cl | -0.999 |
| CCOC(=O)N1CCC(N2CC(C)OC(C)C2)CC1 (centres unmarked) | -1.5 |
| CC(C)(c1ccc(C(=O)O)s1)c1ccc(C(=O)O)s1 | 2.33 |
| O=C(Nc1ccc(C23CC4CC(CC(C4)C2)C3)cc1)c1ccc(S(=O)(=O)N2CCOCC2)cc1 | 1.57 |
| CCOc1cc(-c2nc3ccc4ccccc4c3c3c2CCCC3)ccc1O | -0.436 |
| COc1ccc(CCNS(=O)(=O)c2cc(-c3onc(C)c3C)ccc2C)cc1OC | -5.28 |
| COc1cc(N)ccc1Cc1ccc(N)cc1OC | -0.712 |
| O=C1CC(N2CCN(c3ccc(Cl)cc3)CC2)C(=O)N1c1ccc(F)cc1 (centres unmarked) | 2.92 |
| O=C(Nc1noc2c1COc1ccccc1-2)N1CCC(Cc2ccccc2)CC1 | 0.0281 |
| Cc1nn(-c2cccc(Cl)c2)c2c1C(c1ccc(F)cc1)C(C#N)=C(N)O2 (centres unmarked) | -2.64 |
| CC(Sc1nc2ccccc2o1)C(=O)O (centres unmarked) | 1.25 |
| COc1cc(CNCc2ccccc2Cl)ccc1OCC(N)=O | -5.15 |
| CC1(C)CC2CC(C)(CN2C(=O)c2cc(-c3ccco3)on2)C1 (centres unmarked) | -5.09 |
| CCC(C)NC(=O)C1CCN(S(=O)(=O)c2cccc3nonc23)CC1 (centres unmarked) | 7.35 |
| CCc1ccc2oc(-c3ccccc3)c/c(=N\CCO)c2c1 | 0.561 |
| Cc1ccc(S(=O)(=O)NCC2(c3ccccc3)CCOCC2)cc1 | -0.386 |
| CCOCCCNC(=O)Cn1nc(CC)n2c(cc3occc32)c1=O | -3.79 |
| CCOc1ccc2nc(C3C(=O)c4ccccc4C3=O)cc(O)c2c1 | 1.74 |
| CC1(C)Cc2c(sc(NC(=O)C(C)(C)C)c2C#N)C(C)(C)N1 | -2.68 |

| SMILES | % Inhibition @ 10 uM [%] |
| --- | --- |
| CC(=O)c1cc2c(cc1NS(=O)(=O)c1ccc(Cl)cc1)OCO2 | -3.92 |
| CCCCn1cnc2cc(NCc3ccccn3)ccc21 | 0.843 |
| Cc1ccccc1NC(=O)CSc1nc(C)c2c(n1)CCCC2 | -1.63 |
| Cc1ccc(NC(=O)CC2(CC(=O)N(C)C)CCCC2)cc1 | 2.43 |
| Cc1cccc(CNC(=O)C(C)n2nc(C)c3c(C)n(-c4ccccc4)nc3c2=O)c1 (centres unmarked) | -6.33 |
| CC(=O)c1ccc(N2CCN(Cc3ccc(C)o3)CC2)cc1 | -4.75 |
| O=C(Cc1ccccc1)Nc1nnc(S(=O)(=O)N2CCCC2)s1 | -3.51 |
| O=C(O)C1Cc2c([nH]c3ccccc23)C(c2ccc(Cl)cc2)N1 (centres unmarked) | 1.29 |
| COC(=O)c1sccc1N(Cc1ccc(C)cc1)S(C)(=O)=O | 1.68 |
| COc1cc(OC)c(OC)cc1CNCCSc1nnnn1C | -1.71 |
| COc1cccc(OC)c1C(=O)Nc1ccccc1 | -1.98 |
| O=S(=O)(c1ccc(F)cc1)N1CCC(c2nc(O)c3nnn(Cc4cccc(F)c4)c3n2)CC1 | 1.12 |
| O=C1N2CN(CCO)CN3C(=O)N4CN(CCO)CN1C4C23 (centres unmarked) | -0.386 |
| COc1ccc(C(=O)NCc2ccncc2)cc1OC | 3.65 |
| O=C1CC(N2CCN(c3ncccn3)CC2)C(=O)N1c1ccc(F)cc1 (centres unmarked) | -4.82 |
| COc1ccc(CNC(=O)c2csc3c2CCCCC3)cc1 | 3.54 |
| Cc1ccc(N(CC(=O)Nc2ccccc2C(=O)N2CCOCC2)S(C)(=O)=O)cc1 | -2.65 |
| CCC(Oc1ccccc1)C(=O)Nc1cccnc1 (centres unmarked) | 2.39 |
| COc1ccc(CNC(=O)c2ccc(-c3nc(CS(=O)(=O)c4ccc(C)cc4)c(C)o3)cc2)cc1 | -2.74 |
| CCn1ccc(C(=O)Nc2ccc(S(=O)(=O)Nc3ccccc3OC)cc2)n1 | 4.44 |
| COC(=O)c1ccc(CSc2nc(O)c3cnn(-c4ccc(C)c(C)c4)c3n2)o1 | -3.35 |
| O=C1c2cccnc2C(=O)N1Cc1ccc(S(=O)(=O)Nc2cccnc2)s1 | -2.56 |
| COc1ccc(C/N=C/C2=C(O)CCCC2)cc1 | 3.05 |
| COc1cc(Br)c(C2C3=C(O)CCCC3=NC(C)=C2C(=O)N2CCOCC2)cc1OC (centres unmarked) | 1.86 |
| CCc1ccc(OCc2cccc(C(=O)O)c2)cc1 | -3.13 |
